According to PubChem BioAssay AID485313 (National Center for Advancing Translational Sciences (NCATS), 2010):
The campaign covered roughly 320,000 compounds. About 7,600 (2.4%) were called active. Inconclusive results, whose numbers are uncertain, are shown with a selection of clear calls. Calls follow the shape of the dose curve; as a rule, active = well fitted activation curve with a large enough effect; inconclusive = small, poorly fitted or top-dose-only effect; inactive = no such curve, though single readings can be large or run the other way. Where the call is inconclusive, the potency comes from a doubtful curve fit.

assay: qHTS Assay for NPC1 Promoter Activators; conditions: Huh7 NPC1 promoter luciferase reporter, 24 h; series mostly up to 9.22 µM; activation: at the top concentration; also: nearly all actives have a fitted effect of over 60% in size; as to activation: % of control where 0% means no effect
In short: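 Luciferase expression driven by the NPC1 promoter was measured in stably transfected Huh7 cells after a 24 h compound incubation, using a luciferase reagent and a luminescence read.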
Potency is read from the fitted curve at half-maximal effect; tags tell the direction and shape of the fitted curve.

Potency, active:
O=C(O)c1ccccc1N/N=C\c1ccnc2ccccc12 0.355 µM
COc1cccc2sc3ccc(C#Cc4ccc(N)cc4)cc3c(=O)c12 3.55 µM
Cc1cccc(NC(=O)COc2ccc(Br)cc2/C=N/O)c1 3.98 µM
c1ccc(-c2nnc(-c3ccccc3)nn2)cc1 3.16 µM
Nc1ccc2c(c1)C/C(=C/c1ccco1)C2=O 2.82 µM
CCN(CC)c1ccc(/C=N/NC(=O)c2ccccn2)cc1 0.447 µM
Cc1cccc(-n2ncc3c(N4CCC5(CC4)OCCO5)ncnc32)c1 2.82 µM
COC(=O)c1ccc(NC(=O)C(=O)c2cccn2C)cc1 0.398 µM
COc1ccc2oc(=N)c(C(=O)Nc3ccccc3Cl)cc2c1 3.55 µM

Potency, inconclusive:
Cc1ccc([N+](=O)[O-])cc1N=Cc1ccc(Br)s1 4.47 µM [activator, partial curve]
COCCNC(=O)c1ccc(CSc2nc3ccccc3s2)cc1 3.55 µM [activator, partial curve]
O=C(Nc1ccc([N+](=O)[O-])cc1)c1ccccc1F 2.82 µM [activator, partial curve]
Cc1nnsc1S(=O)(=O)Cc1ccccc1Cl 0.794 µM [activator, single point]
Cc1oc(-c2ccc(Cl)cc2)cc1-c1nn2c(-c3ccco3)nnc2s1 2.24 µM [activator, partial curve]
Cc1ccc(-c2ccc(SCC(=O)Nc3nonc3C)nn2)cc1 3.98 µM [activator, single point]
COc1ccccc1CNC(=O)Cn1cccc1C(=O)c1ccccc1C 3.16 µM [activator, single point]
COC(=O)c1ccc(CO/N=C/c2ccc(OC)cc2)o1 2 µM [activator, partial curve]
Cn1cc(Br)c(C(=O)N/N=C/c2cc3ccccc3nc2Cl)n1 0.501 µM [activator, full curve, poor fit]
Cc1ccc2nc(NC(=O)C3CCCN(S(=O)(=O)c4cnc[nH]4)C3)sc2c1 (stereo unspecified) 3.98 µM [activator, partial curve]
CC1CCN(c2ccc(NC(=O)Cc3ccccc3)cc2)CC1 2.24 µM [activator, partial curve]
O=C(Nc1ccc(-c2cnco2)cc1)c1ccc(F)cc1F 3.55 µM [activator, partial curve]
COc1cccc(C(=O)O/N=C(\N)c2ccccn2)c1OC 0.631 µM [activator, full curve]
CC(=O)c1ccc(OCc2cc(C(=O)N3CCOCC3)no2)cc1 3.16 µM [activator, single point]
COc1cc(C)ccc1OCC(=O)NC1CCCCCC1 5.62 µM [activator, single point]
Cc1ccc2c(c1)cc1c(=O)[nH]ncn12 2.82 µM [activator, single point]
O=C(Nc1ccccn1)c1sc2cccc(F)c2c1Cl 5.62 µM [activator, single point]
CCOC(=O)c1oc2cccc(OC(C)=O)c2c1C 6.31 µM [activator, single point]
O=C(NCCc1ccc(O)cc1)c1ccc(Cl)cc1 5.62 µM [activator, single point]
Cc1ccc(C(=O)N/C(=C\c2ccccc2)C(=O)OCc2ccccc2)cc1 5.62 µM [activator, single point]
COc1ccc(-c2oc3ccccc3c(=O)c2OC(=O)c2ccc(C)cc2)cc1 5.62 µM [activator, single point]
O=C(COc1ccccc1Cl)Nc1cc(NC(=O)COc2ccccc2Cl)cc(C(=O)O)c1 3.55 µM [activator, single point]
CC(=O)Nc1c(-c2ccc3ccccc3c2)nc2ccccn12 6.31 µM [activator, single point]
CCC(=O)Nc1c(C(=O)Nc2ccc3c(c2)OCCO3)oc2ccccc12 3.98 µM [activator, single point]
Cc1ccc(OCCNC(=O)c2ccc3c(c2)OCO3)cc1 3.55 µM [activator, single point]
FC(F)(F)c1nc2cc3nc4ccccc4[nH]c3cc2n1 2.82 µM [activator, partial curve]
Cc1ccc(OC(=O)COc2ccccc2C)c(-n2nc3ccccc3n2)c1 2.82 µM [activator, partial curve]
Cn1c(CSc2ccccc2)c(C#N)c2ccccc21 2.24 µM [activator, partial curve]
CCCNC(=O)c1ccc(Cn2cc(-c3ccc(OC)cc3)nc2C(C)N)cc1 (stereo unspecified) 3.16 µM [activator, partial curve]
Cc1nc(-c2noc(-c3ccccc3Cl)n2)c(C(F)(F)F)o1 3.55 µM [activator, single point]
CN(C)C(=O)c1cc(C(=O)c2ccc(Cl)cc2Cl)c[nH]1 3.55 µM [activator, single point]
CCCCN(C(=O)CNC(=O)c1ccco1)C(C(=O)NC1CCCCC1)c1cccnc1 (stereo unspecified) 3.55 µM [activator, single point]
CCOc1ccccc1NC(=O)Nc1ccc2c(c1)CCC2 0.562 µM [activator, full curve]
Cc1ccc(Nc2nc(CSc3nnc(-c4ccccc4C)n3C)cs2)cc1 5.62 µM [activator, single point]
CC1CCC(NC(=O)CCC(=O)N2CC(C)Oc3ccccc32)CC1 (stereo unspecified) 3.16 µM [activator, single point]
NC(=O)COc1ccc2oc(-c3ccccc3)cc(=O)c2c1 3.55 µM [activator, partial curve]
O=C(c1csc(Nc2ccccc2Cl)n1)N1CCCC1 4.47 µM [activator, partial curve]
COc1ccc(-c2cc(C(=O)NCc3cccnc3)no2)cc1 4.47 µM [activator, single point]
O=C(Nc1ccccc1)c1cnc[nH]1 3.55 µM [activator, single point]
Cc1cc(/C=C2/C(=O)N(C)C(=S)N2C)ccc1N1CCCC1 5.62 µM [activator, single point]
COc1ccccc1/C=C/C(=O)Nc1cccnc1 2 µM [activator, partial curve]
Cc1cc(-c2c(C)[nH]n(-c3ccc(Cl)cc3)c2=O)n[nH]1 3.55 µM [activator, single point]
Cc1cccc(N/N=C/c2ccccc2O)c1 3.98 µM [activator, partial curve]
O=C1Nc2ccccc2/C1=C/c1ccccc1F 5.62 µM [activator, single point]
COc1ccc(/C=N/N2C(=N)SCC2=O)cc1 5.62 µM [activator, single point]
Cc1cc2nc(-c3ccc[nH]c3=O)[nH]c2cc1C 1 µM [activator, single point]
Clc1ccc2c(c1)[C@H]1OCC[C@H]1[C@@H](c1ccco1)N2 5.62 µM [activator, single point]
O=c1[nH]c2ccccc2c2nc3ccccn3c12 3.55 µM [activator, single point]

activation, inactive:
COc1cccc(CNC(=O)CCCn2ccc3cc(S(=O)(=O)N4CCCC4)ccc32)c1 -0.988%
CC(C)Cn1c(N)c(C(=O)CSc2ccccc2)c(=O)n(C)c1=O 9.27%
CCOC(=O)c1c(NC(=O)COC(=O)c2nc(Cl)ccc2Cl)sc(C(=O)NC)c1C -3.1%
CC1CCN(S(=O)(=O)c2cc(F)ccc2CN2C(=O)c3cccnc3C2=O)CC1 -4.26%
Cc1cccc(/C=N/NC(=O)c2cccc(NC(=O)c3ccccc3)c2)n1 1.19%
Cc1cc([N+](=O)[O-])ccc1NC(=O)CSc1nnc(C)n1C -2.84%
CC(OC(=O)c1nn(C(C)C)c(=O)c2ccccc12)C(=O)Nc1ncc(Cl)cc1Cl (stereo unspecified) -0.934%
CC1CCCC(C)N1C(=O)COC(=O)c1cc(-c2cccs2)nn1-c1ccccc1 (stereo unspecified) -0.0897%
O=C(Cn1cnc2ccccc21)N1CCN(S(=O)(=O)c2ccccc2)CC1 0.788%
O=C(c1ccc2c(c1)OCCCO2)N1CCCCC1 7.47%
CCOc1ccc(C(=O)NCC(=O)OCC(=O)Nc2ccccc2OCC)cc1 1.17%
O=c1[nH]c2cc(Cl)c(Cl)cc2[nH]c1=O 23.7% [at 46.1 µM]
CCOC(=O)c1c(NC(=O)C2=C(C)NC(=S)NC2c2ccc(CC)cc2)sc(C)c1C (stereo unspecified) -5.96%
O=C(COc1cc(Cl)c(Cl)cc1Cl)Nc1ccncc1 0.961%
COc1cc(C(=O)NCc2cn3ccccc3n2)cc(OC)c1OC -4.43%
Cc1ccc(S(=O)(=O)NC(=O)c2ccccc2F)cc1 -0.367%
Cc1cc(Cl)ccc1OCC(=O)NNC(=O)c1ccco1 10.1%
O=C(CSc1nc2ccccc2o1)N/N=C/c1ccccc1 -2.26%
Cc1cc(Cl)ccc1OCC(=O)NNC(=O)c1cnccn1 -0.815%
